Out of some 360,000 compounds screened, about 7,500 (2.1%) were called active. This list was built around the results that the source calls inconclusive (neither active nor inactive); the mix of calls is not that of the screen. The call rests on the fitted dose curve; in most records, active means well fitted cell-killing curve with a large enough effect; inconclusive means small, poorly fitted or top-dose-only effect, or effect the other way, or another doubt; inactive means no such curve, though single readings can be large or run the other way. Potencies of inconclusive entries are left out as doubtful fits.
Assay: qHTS for induction of synthetic lethality in tumor cells producing 2HG: qHTS for the HT-1080-IDH1KD cell line;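 on activity, negative = toxicity: 0% = DMSO wells and -100% = cell-free medium wells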
Conditions: HT-1080 IDH1 knockdown viability, ATP luminescence, 48 h; activity, negative = toxicity: at 46.1 µM (top of the series) unless noted
Summary of the method: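 In this qHTS, HT-1080 cells depleted of IDH1 are exposed for 48 h at 37 °C to compound titrations. Toxicity is scored from CellTiter-Glo luminescence, with DMSO as full viability and medium alone as none.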
Potency means the concentration at half of the fitted maximal effect; tags describe the fitted curve by direction and shape.

Compound	activity, negative = toxicity	Potency
C=CCn1c(C)cc(-c2csc(N)n2)c1C	inactive: 1.71%	–
Cc1cc2oc(C(=O)NCC(c3ccco3)N3CCCC3)c(C)c2cc1C (stereo not given)	–	inconclusive [cytotoxic, single point]
Nc1nc(-c2ccccn2)nc(N)c1Cc1ccc(Cl)cc1Cl	–	inconclusive [cytotoxic, single point]
CCCCCC(=O)N1C[C@H](n2cc(-c3ccc(F)cc3)nn2)[C@@H](O)C[C@@H]1c1ccc(C)cc1	–	inconclusive [cytotoxic, single point]
O=C(C#Cc1ccccc1)c1ccccc1	–	active: 18.4 µM
Cc1cc(O)c(/C=N/Nc2ccc(F)cc2)c(=O)o1	–	inconclusive [cytotoxic, single point]
CCOc1ccc(S(=O)(=O)N2CCCCC2)c2ccccc12	–	active: 20.6 µM
COc1ccc(C(CC(=O)c2ccc(O)cc2)S(=O)(=O)c2ccc(C)cc2)cc1 (stereo not given)	–	inconclusive [cytotoxic, partial curve]
COc1ccc(-c2cc(C(=O)Nc3ccc(S(N)(=O)=O)cc3)c3ccccc3n2)cc1OC	–	inconclusive [cytotoxic, full curve, poor fit]
Cc1ccc(C)c(C(O)c2ncc(-c3ccc(Cl)cc3)[nH]2)c1 (stereo not given)	–	inconclusive [cytotoxic, partial curve]
Brc1ccc2ncnc(Nc3ccc(N4CCOCC4)cc3)c2c1	inactive: -27.2%	–
CC(C)CCCN1C(Nc2ccccc2)=NC[C@@H]1C	inactive: 11.2%	–
Cn1ccc2cc(NC(=O)Nc3cccnc3)ccc21	–	inconclusive [cytotoxic, single point]
CCOC(=O)c1c(NC(=O)COC(=O)c2cc(OC)c(OC)cc2[N+](=O)[O-])sc(C)c1CC	inactive: 8.2%	–
O=C(NC(c1ccc(Cl)cc1)c1cccnc1)C1CCN(CCOc2ccc(Cl)cc2Cl)CC1 (stereo not given)	–	active: 18.4 µM
O=C(CSc1nc(-c2ccco2)cc(C(F)(F)F)n1)NCCN1CCOCC1	inactive: 9.25%	–
Cc1nc(-c2ccccc2)nc2[nH]c(=O)n(-c3ccccc3)c(=O)c12	inactive: -10%	–
CC1(C)Cc2cccc(OCC(=O)NCc3ccc(F)cc3)c2O1	inactive: -3.52%	–
COc1ccc(-c2cc(=Nc3ccc(C)cc3)c3ccccc3o2)cc1	–	inconclusive [cytotoxic, single point]
O=c1cnc2ccccc2n1Cc1ccc(Br)cc1	–	inconclusive [cytotoxic, single point]
CC(=O)[C@]1(O)Cc2c(O)c3c(c(O)c2[C@@H](O[C@H]2C[C@H](N)[C@H](O)[C@H](C)O2)C1)C(=O)c1ccccc1C3=O	–	active: 0.326 µM
COc1ncnc2c1N[C@@](C)(O)c1c(F)c(F)c(F)c(F)c1S2	inactive: -8.98%	–
CCCOC(=O)c1ccc(Oc2c(-c3ccc(OC)cc3O)n[nH]c2C)cc1	–	inconclusive [cytotoxic, single point]
O=C(COc1ccc(Br)cc1)NCCCNC(=O)c1cccnc1	–	active: 10.3 µM
Cc1nn(-c2ccccc2)c(N2CCCC2)c1/C=N/NC(=O)c1cc(-c2cccnc2)nc2ccccc12	inconclusive: -31.8% [cytotoxic]	–

Compound	activity, negative = toxicity	Potency
O=C(CCCn1nnc(-c2cccnc2)n1)c1ccc(F)cc1	inactive: 1.52%	–
O=C(O)C(Oc1ccc2cc(-c3ccc(Cl)cc3)c(=O)oc2c1)c1ccccc1 (stereo not given)	inactive: -0.623%	–
Cc1ccc(NC(=S)C2=C(O)c3sccc3N(C)S2(=O)=O)cc1	inactive: 2.5%	–
O=C(COCC(=O)Nc1cccc(C(F)(F)F)c1)Nc1cccc(C(F)(F)F)c1	–	inconclusive [cytotoxic, single point]
Cc1[nH]ccc2cc3nc4ccccc4c3cc12	–	inconclusive [cytotoxic, partial curve]
O=C(CNC(=O)c1ccc(S(=O)(=O)N2CCCCC2)cc1)N/N=C/c1ccco1	–	inconclusive [cytotoxic, partial curve]
FC(F)(F)c1cccc(NC(=S)Nc2cccc(Cl)c2)c1	–	inconclusive [cytotoxic, single point]
COc1ccc(C(=O)Nc2ccc3c4c(cccc24)CC3)cc1	–	inconclusive [cytotoxic, single point]
CCOC(=O)N1CCC(N2Cc3cccc(C(=O)Nc4ccc(CC)cc4)c3C2=O)CC1	inactive: -15.1%	–
CCc1nnc(NC(=O)CSc2nc(SC)ns2)s1	inconclusive: 32%	–
CCNS(=O)(=O)c1ccc(CCC(=O)Nc2cc(Cl)ccc2Oc2ccccc2)cc1	–	inconclusive [cytotoxic, single point]
Cc1cc(C(=O)CCl)c(C)n1-c1ccon1	–	active: 20.6 µM
OCCN1CCN(c2cc(-c3ccccc3)c3ccccc3n2)CC1	–	inconclusive [cytotoxic, single point]
Cc1cc(C(=O)CSc2nc3ccccc3[nH]2)c(C)n1Cc1ccco1	–	inconclusive [cytotoxic, single point]
O=C1CCSc2ccc(Cl)cc2N1Cc1ccc(Cl)cc1	inactive: -3.91% [at 9.24 µM]	–
NC(c1csc(Nc2ccc(C(=O)c3ccccc3)cc2)n1)C1CCCCC1 (stereo not given)	–	active: 14.6 µM
O=[N+]([O-])c1cc(C(F)(F)F)ccc1N1CCC(O)CC1	inactive: 5.36%	–
CCCn1c(=S)[nH]c2cc(C(=O)N3CCN(C(=O)OCC)CC3)ccc2c1=O	inactive: -1.33%	–
CC(=O)Nc1ccc2c(c1)Cc1c(F)cccc1-2	inactive: -14%	–
CCN(CC)C(=O)N1CCn2c(nc3ccccc32)C1	inactive: -6.23%	–
CCCCCCCCCCCC(=O)NC(C(=O)OCC)C(O)c1cccc([N+](=O)[O-])c1 (stereo not given)	–	inconclusive [cytotoxic, single point]
Cc1nc(N/N=C/c2ccccn2)sc1C	–	active: 14.6 µM
Cc1ccccc1-n1c(C)nnc1SCC(=O)NCC1CCCO1 (stereo not given)	–	active: 22.4 µM
O=C1OCCC1Sc1nnc(-c2ccc(F)cc2)n1Cc1ccccc1 (stereo not given)	inactive: 1.1%	–
COc1ccccc1CNc1nc(NCc2ccc3occc3c2)c2sccc2n1	–	inconclusive [cytotoxic, single point]

Compound	activity, negative = toxicity	Potency
Cc1cc(Br)c(OCc2ccc(C(=O)N/N=C3\CC4CC=CC34)cc2)c(Br)c1 (stereo not given)	–	inconclusive [cytotoxic, single point]
CC(C)C[C@H](N)c1nnc(S(=O)(=O)Cc2ccc(F)cc2)o1	–	inconclusive [cytotoxic, single point]
Cc1ccc(C)c2nc(Cl)c(C3NC(=O)c4ccccc4N3)cc12 (stereo not given)	–	inconclusive [cytotoxic, single point]
CC12CC(NC(=O)N1c1cccc(C(=O)NCc3ccccn3)c1)c1ccccc1O2 (stereo not given)	inactive: 0.297%	–
CCOC(=O)C1=NNC(C(=O)c2ccc(Cl)cc2)C1c1ccc(OC)cc1 (stereo not given)	inactive: -12.8%	–
COc1ccccc1C1CC(=O)Nc2cc(C)c(C)cc21 (stereo not given)	–	active: 6.51 µM
CSc1ccc(CNC(=O)Cc2ccc(NC(=O)C3=C(C)OCCS3)cc2)cc1	–	active: 16.4 µM
CCOC(=O)c1c(-c2cc(OC)c(OC)c(OC)c2)csc1N	–	inconclusive [cytotoxic, partial curve]
CCOC(=O)C1=C(CCl)NC(=O)NC1c1ccc2c(c1)OCO2 (stereo not given)	–	inconclusive [cytotoxic, partial curve]
CN(C)S(=O)(=O)c1cccc(COC(=O)c2cc([N+](=O)[O-])ccc2N2CCOCC2)c1	–	inconclusive [cytotoxic, full curve, poor fit]
COc1cc(/C=N/Nc2nc3ccccc3[nH]2)cc(OC)c1O	–	inconclusive [cytotoxic, single point]
Cc1cc(C(=O)N2CCc3ccccc32)n(-c2ccccc2)n1	–	inconclusive [cytotoxic, partial curve]
CC(=O)Nc1cc(-c2ccc(Cl)cc2)[nH]n1	inactive: -8.83%	–
CCN(CC)C(=O)CC(c1ccccc1)c1ccco1 (stereo not given)	inactive: 2.2%	–
O=C(Nc1cccc(Oc2ccccc2)c1)c1ccc(-n2cncn2)c2ccoc12	–	inconclusive [cytotoxic, single point]
Cc1ccc(NS(=O)(=O)c2cc3c4c(cccc4c2)C(=O)NC3=O)cc1	–	inconclusive [cytotoxic, partial curve, poor fit]
COc1ccc(C(=O)Nc2ccc(Cl)c(S(=O)(=O)Nc3ccccc3OC)c2)cc1	–	inconclusive [cytotoxic, single point]
CCCOc1ccc(/C=N/NC(=O)CN(c2ccc(OCC)cc2)S(C)(=O)=O)cc1	inactive: -0.396%	–
CCOC(=O)c1c(C)[nH]c(C)c1C(=O)CSc1nc2ccccc2c(=O)n1-c1ccc(Cl)cc1	–	inconclusive [cytotoxic, partial curve, poor fit]
OC(c1cccc(OCc2ccccc2)c1)c1nnc(-c2ccccc2)o1 (stereo not given)	–	inconclusive [cytotoxic, single point]
COCCCn1c(=O)/c(=C\c2ccccc2OC(F)F)s/c1=C(/C#N)C(=O)N1CCOCC1	inactive: 7.6%	–
Cc1c(N=C2C=CC(=O)c3ccccc32)c(=O)n(-c2ccccc2)n1C	–	active: 18.4 µM
Cc1ccc(Cl)cc1NC(=O)C1CC(=O)N(C(C)C)C1 (stereo not given)	–	inconclusive [rising, partial curve, poor fit]
COc1cc2[nH]c(=S)n(Cc3ccc(F)cc3)c(=O)c2cc1OC	–	inconclusive [cytotoxic, full curve, poor fit]
COc1ccc(-c2nc(N)ncc2-c2ccc(OC)c(OC)c2)c(O)c1	–	inconclusive [cytotoxic, single point]

From PubChem BioAssay AID686971 (National Center for Advancing Translational Sciences (NCATS), 2013)
